Test results published in the supplement of paper PMC8728848.
The other results are listed elsewhere or left out.

Columns and labels:
Assay in all cases: glycan array binding signal (z-score within array); higher = stronger binding
Settings in all cases: glycan notation: IUPAC condensed, linker removed
[1] = target: Gal(b1-4)GlcNAc(b1-2)Man(a1-6)[Man(a1-3)]Man(b1-4)GlcNAc(b1-4)GlcNAc
Method in brief: (§1)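 Arrays were curated from the Consortium for Functional Glycomics database, 3228 in total, and kept only where the protein sequence was available. Binding is expressed as a within-array Z-score. This score was averaged across arrays of the same protein sequence at different concentrations or buffers and across linkers, and negative values can be read as non-binding.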

[2] = target: Gal(b1-4)GlcNAc(b1-2)[Gal(b1-4)GlcNAc(b1-4)]Man(a1-3)[Gal(b1-4)GlcNAc(b1-2)Man(a1-6)]Man(b1-4)GlcNAc(b1-4)GlcNAc
Method in brief: as §1

[3] = target: Gal(b1-4)GlcNAc(b1-2)[Gal(b1-4)GlcNAc(b1-4)]Man(a1-3)[Gal(b1-4)GlcNAc(b1-2)[Gal(b1-4)GlcNAc(b1-6)]Man(a1-6)]Man(b1-4)GlcNAc(b1-4)GlcNAc
Method in brief: as §1

[4] = target: Gal(b1-4)GlcNAc(b1-2)[Gal(b1-4)GlcNAc(b1-4)]Man(a1-3)[GlcNAc(b1-4)][Gal(b1-4)GlcNAc(b1-2)Man(a1-6)]Man(b1-4)GlcNAc(b1-4)GlcNAc
Method in brief: as §1

[5] = target: Gal(b1-4)GlcNAc(b1-2)[Gal(b1-4)GlcNAc(b1-4)]Man(a1-3)[GlcNAc(b1-4)][Gal(b1-4)GlcNAc(b1-2)[Gal(b1-4)GlcNAc(b1-6)]Man(a1-6)]Man(b1-4)GlcNAc(b1-4)GlcNAc
Method in brief: as §1

[6] = target: Gal(b1-4)GlcNAc(b1-2)[Gal(b1-4)GlcNAc(b1-6)]Man(a1-6)[Gal(b1-4)GlcNAc(b1-2)Man(a1-3)]Man(b1-4)GlcNAc(b1-4)GlcNAc
Method in brief: as §1

[7] = target: Gal(b1-4)GlcNAc(b1-2)[Gal(b1-4)GlcNAc(b1-6)]Man(a1-6)[Gal(b1-4)GlcNAc(b1-2)Man(a1-3)]Man(b1-4)GlcNAc(b1-4)[Fuc(a1-6)]GlcNAc
Method in brief: as §1

[8] = target: Gal(b1-4)GlcNAc(b1-2)[Gal(b1-4)GlcNAc(b1-6)]Man(a1-6)[GlcNAc(b1-4)][Gal(b1-4)GlcNAc(b1-2)Man(a1-3)]Man(b1-4)GlcNAc(b1-4)GlcNAc
Method in brief: as §1

[9] = target: Gal(b1-4)GlcNAc(b1-2)[Gal(b1-4)GlcNAc(b1-6)]Man(a1-6)[GlcNAc(b1-4)][Gal(b1-4)GlcNAc(b1-2)[Gal(b1-4)GlcNAc(b1-4)]Man(a1-3)]Man(b1-4)GlcNAc(b1-4)[Fuc(a1-6)]GlcNAc
Method in brief: as §1

[10] = target: Gal(b1-4)GlcNAc(b1-3)Gal(b1-3)GalNAc
Method in brief: as §1

[11] = target: Gal(b1-4)GlcNAc(b1-3)Gal(b1-3)GlcNAc
Method in brief: as §1

[12] = target: Gal(b1-4)GlcNAc(b1-3)Gal(b1-4)Glc
Method in brief: as §1

[13] = target: Gal(b1-4)GlcNAc(b1-3)Gal(b1-4)GlcNAc
Method in brief: as §1

[14] = target: Gal(b1-4)GlcNAc(b1-3)Gal(b1-4)GlcNAc(b1-2)Man(a1-3)[Gal(b1-4)GlcNAc(b1-3)Gal(b1-4)GlcNAc(b1-2)Man(a1-6)]Man(b1-4)GlcNAc(b1-4)GlcNAc
Method in brief: as §1

[15] = target: Gal(b1-4)GlcNAc(b1-3)Gal(b1-4)GlcNAc(b1-2)Man(a1-3)[Gal(b1-4)GlcNAc(b1-3)Gal(b1-4)GlcNAc(b1-2)Man(a1-6)]Man(b1-4)GlcNAc(b1-4)[Fuc(a1-6)]GlcNAc
Method in brief: as §1

[16] = target: Gal(b1-4)GlcNAc(b1-3)Gal(b1-4)GlcNAc(b1-2)[Gal(b1-4)GlcNAc(b1-3)Gal(b1-4)GlcNAc(b1-6)]Man(a1-6)[Gal(b1-4)GlcNAc(b1-3)Gal(b1-4)GlcNAc(b1-2)Man(a1-3)]Man(b1-4)GlcNAc(b1-4)GlcNAc
Method in brief: as §1

[17] = target: Gal(b1-4)GlcNAc(b1-3)Gal(b1-4)GlcNAc(b1-2)[Gal(b1-4)GlcNAc(b1-3)Gal(b1-4)GlcNAc(b1-6)]Man(a1-6)[Gal(b1-4)GlcNAc(b1-3)Gal(b1-4)GlcNAc(b1-2)Man(a1-3)]Man(b1-4)GlcNAc(b1-4)[Fuc(a1-6)]GlcNAc
Method in brief: as §1

[18] = target: Gal(b1-4)GlcNAc(b1-3)Gal(b1-4)GlcNAc(b1-3)Gal(b1-4)GlcNAc
Method in brief: as §1

B1: GSL-I-B4 (Griffonia simplicifolia) (protein)
chain: NFWSDVEDSIIFQGDANTTAGTLQLCKTNQYGTPLQWSAGRALYSDPVQLWDNKTESVASFYTEFTFFLKITGNGPADGLAFFLAPPDSDVKDAGEYLGLFNKSTATQPSKNQVVAVEFDTWTNPNFPEPSYRHIGINVNSIVSVATKRWEDSDIFSGKIATARISYDGSAEILTVVLSYPDGSDYILSHSVDMRQNLPESVRVGISASTGNNQFLTVYILSWRFSSNLQSTSVKAAMEPEITRTVV
glycan array binding signal (z-score) [1]: -0.163 | glycan array binding signal (z-score) [2]: -0.138 | glycan array binding signal (z-score) [3]: -0.142 | glycan array binding signal (z-score) [4]: -0.197 | glycan array binding signal (z-score) [5]: -0.191 | glycan array binding signal (z-score) [6]: -0.223 | glycan array binding signal (z-score) [7]: -0.226 | glycan array binding signal (z-score) [8]: -0.147 | glycan array binding signal (z-score) [9]: -0.169 | glycan array binding signal (z-score) [10]: -0.107 | glycan array binding signal (z-score) [11]: -0.171 | glycan array binding signal (z-score) [12]: -0.19 | glycan array binding signal (z-score) [13]: -0.209 | glycan array binding signal (z-score) [14]: 0.028 | glycan array binding signal (z-score) [15]: -0.049 | glycan array binding signal (z-score) [16]: -0.178 | glycan array binding signal (z-score) [17]: -0.159 | glycan array binding signal (z-score) [18]: -0.172
